Here are results for 36 molecules from the supplement of paper PMC10037445.

The full ranking holds about 2,900 compounds; the median of “IRF Lucia reporter activity, fold change vs agonist alone” is about 0.9, and the highest 2% start at about 2.8. Some of the results follow.

Experiment [1] concerns RAW-Dual. In words: IRF Lucia reporter activity, fold change vs agonist alone; cytotoxicity flag (confluency mask): not cytotoxic; higher = enhanced IRF activity. The method in brief: (§1)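 Cytotoxic wells were those whose IncuCyte confluency was below 70% of agonist controls in both mask sets. The cells were RAW-Dual macrophages at 50,000 cells/well in DMEM on 384-well plates, dosed with 50 nL of library stock by pin tool, stimulated with a PRR agonist 1 h later, and kept at 37 °C, 5% CO2 for 20 hours. IRF and NF-κB reporter activity, as fold change over agonist-alone wells, came from supernatant read by QuantiLuc luminescence and QuantiBlue absorbance, respectively.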

Experiment [2] deals with RAW-Dual. In words: IRF Lucia reporter activity, fold change vs agonist alone; higher = enhanced IRF activity. As to conditions: cytotoxicity flag (confluency mask): not cytotoxic, agonist: MPLA (TLR4) […]. The method in brief:
as §1

For experiment [3], the system named is RAW-Dual. In words: IRF Lucia reporter activity, fold change vs agonist alone; cytotoxicity flag (confluency mask): cytotoxic (confluency <70% of control); higher = enhanced IRF activity. The method in brief:
as §1

Where [4] appears, read: agonist: 3'3'-cGAMP (STING) 10 ug/mL.
[5] abbreviates: library stock concentration (final ~1000-fold dilution): 10 mM.

For the molecule `O=C(Nc1ccc(OC(F)(F)F)cc1)c1sccc1NCc1ccnc2ccccc12` (library stock concentration (final ~1000-fold dilution): 10 mM), the “IRF Lucia reporter activity” value in experiment [1] (setting [4]) was determined as 0.0849; in experiment [1] (agonist: LPS (TLR4) 0.1 ug/mL), 0.826.
As to `O=C(Nc1ccc(OC(F)(F)F)cc1)c1sccc1NCc1ccnc2ccccc12`, in experiment [2] (setting [5]), the “IRF Lucia reporter activity” value was found to be 0.816.
Regarding `CCCCCCCCCCCCCCCCCCOP(=O)([O-])OC1CC[N+](C)(C)CC1`, in experiment [2] (library stock concentration (final ~1000-fold dilution): 10 mM water), the “IRF Lucia reporter activity” value is 1.03.
Consider `CCCCCCCCCCCCCCCCCCOP(=O)([O-])OC1CC[N+](C)(C)CC1` (library stock concentration (final ~1000-fold dilution): 10 mM water), for which the “IRF Lucia reporter activity” value turned out to be 0.316 in experiment [1] (setting [4]) and 0.878 in experiment [1] (agonist: LPS (TLR4) 0.1 ug/mL).
`Cc1cc(=O)oc2cc(O)ccc12`: in experiment [2] (setting [5]), the “IRF Lucia reporter activity” value was found to be 0.944.
In the case of `Cc1cc(=O)oc2cc(O)ccc12` (library stock concentration (final ~1000-fold dilution): 10 mM), the “IRF Lucia reporter activity” value amounted to 0.955 in experiment [1] (setting [4]) and 0.839 in experiment [1] (agonist: LPS (TLR4) 0.1 ug/mL).
In the case of `COc1cccc(-c2ccc(NC(=O)C3=C(C(=O)O)CCC3)c(F)c2)c1` (library stock concentration (final ~1000-fold dilution): 10 mM), the “IRF Lucia reporter activity” value is 1.28 in experiment [1] (setting [4]) and 2.48 in experiment [1] (agonist: LPS (TLR4) 0.1 ug/mL).
In the case of `COc1cccc(-c2ccc(NC(=O)C3=C(C(=O)O)CCC3)c(F)c2)c1`, the “IRF Lucia reporter activity” value in experiment [2] (setting [5]) turned out to be 1.28.
With `CCCc1cc(C)[nH]c(=O)c1CNC(=O)c1cc(-c2ccc(N3CCN(C)CC3)nc2)nc2c1cnn2C(C)C` (library stock concentration (final ~1000-fold dilution): 10 mM), the “IRF Lucia reporter activity” value in experiment [1] (setting [4]) worked out at 0.763; in experiment [1] (agonist: LPS (TLR4) 0.1 ug/mL), 1.35.
As for `O=C(NC1CCN(CCCCC2(C(=O)NCC(F)(F)F)c3ccccc3-c3ccccc32)CC1)c1ccccc1-c1ccc(C(F)(F)F)cc1` (library stock concentration (final ~1000-fold dilution): 10 mM), the “IRF Lucia reporter activity” value is 0.0238 in experiment [3] (setting [4]) and 0.119 in experiment [3] (agonist: LPS (TLR4) 0.1 ug/mL).
Take `COc1ccc(C(=O)CC2(O)C(=O)Nc3c(Cl)ccc(Cl)c32)cc1` (stereo not drawn) (library stock concentration (final ~1000-fold dilution): 10 mM): the “IRF Lucia reporter activity” value in experiment [1] (setting [4]) was 0.518; in experiment [1] (agonist: LPS (TLR4) 0.1 ug/mL) it was 0.915.
For `COS(=O)(=O)[O-].Cc1cc2c3c([n+](C)c4ccc(F)cc4c3c1)-c1cc(F)ccc1N2C` (library stock concentration (final ~1000-fold dilution): 10 mM) the same measures were 1.39 and 1.53.
`CCC1(O)C(=O)OCc2c1cc1n(c2=O)Cc2cc3c(CN(C)C)c(O)ccc3nc2-1` (stereo not drawn) (library stock concentration (final ~1000-fold dilution): 10 mM): the “IRF Lucia reporter activity” value in experiment [1] (setting [4]) came out at 2.77; in experiment [1] (agonist: LPS (TLR4) 0.1 ug/mL), 3.25.
As for `COC1/C=C/OC2(C)Oc3c(C)c(O)c4c(O)c(c(/C=N/N5CCN(C6CCCC6)CC5)c(O)c4c3C2=O)NC(=O)/C(C)=C/C=C/C(C)C(O)C(C)C(O)C(C)C(OC(C)=O)C1C` (stereo not drawn), in experiment [2] (setting [5]), the “IRF Lucia reporter activity” value came to 0.534.
As for `COC1/C=C/OC2(C)Oc3c(C)c(O)c4c(O)c(c(/C=N/N5CCN(C6CCCC6)CC5)c(O)c4c3C2=O)NC(=O)/C(C)=C/C=C/C(C)C(O)C(C)C(O)C(C)C(OC(C)=O)C1C` (stereo not drawn) (library stock concentration (final ~1000-fold dilution): 10 mM), the “IRF Lucia reporter activity” value in experiment [1] (setting [4]) was determined as 0.886; in experiment [1] (agonist: LPS (TLR4) 0.1 ug/mL) it was 0.649.
As to `Nc1ncnc2c1C(=O)N(c1ccc(C3CCC(CC(=O)O)CC3)cc1)CCO2` (stereo not drawn) (library stock concentration (final ~1000-fold dilution): 10 mM), the “IRF Lucia reporter activity” value turned out to be 1.08 in experiment [1] (setting [4]) and 0.638 in experiment [1] (agonist: LPS (TLR4) 0.1 ug/mL).
For `Nc1ncnc2c1C(=O)N(c1ccc(C3CCC(CC(=O)O)CC3)cc1)CCO2` (stereo not drawn), the “IRF Lucia reporter activity” value in experiment [2] (setting [5]) turned out to be 1.05.
As to `NC(CO)(CO)CO`, the “IRF Lucia reporter activity” value in experiment [2] (setting [5]) is 1.16.
Turning to `NC(CO)(CO)CO` (library stock concentration (final ~1000-fold dilution): 10 mM), the entries for the “IRF Lucia reporter activity” value in experiment [1] (setting [4]) and in experiment [1] (agonist: LPS (TLR4) 0.1 ug/mL) were 1.09 and 1.12, respectively.
For `C/C1=C/CC[C@@]2(C)O[C@@H]2[C@H]2OC(=O)[C@H](CN(C)C)[C@@H]2CC1` (library stock concentration (final ~1000-fold dilution): 10 mM) the same measures were 0.0314 and 0.012.
Regarding `O=C(CCCCCCNC(=O)c1cnc(N(c2ccccc2)c2ccccc2)nc1)NO` (library stock concentration (final ~1000-fold dilution): 10 mM), the “IRF Lucia reporter activity” value in experiment [3] (setting [4]) turned out to be 0.0655; in experiment [3] (agonist: LPS (TLR4) 0.1 ug/mL), 0.565.
In the case of `CCOC(=O)C1OC1C(=O)NC(CC(C)C)C(=O)NCCC(C)C` (stereo not drawn), the “IRF Lucia reporter activity” value in experiment [2] (setting [5]) was found to be 0.906.
Take `CCOC(=O)C1OC1C(=O)NC(CC(C)C)C(=O)NCCC(C)C` (stereo not drawn) (library stock concentration (final ~1000-fold dilution): 10 mM): the entries for the “IRF Lucia reporter activity” value in experiment [1] (setting [4]) and in experiment [1] (agonist: LPS (TLR4) 0.1 ug/mL) were 0.308 and 0.727, respectively.
For `O.S=c1nc[nH]c2nc[nH]c12`, in experiment [2] (setting [5]), the “IRF Lucia reporter activity” value was 1.77.
For `O.S=c1nc[nH]c2nc[nH]c12` (library stock concentration (final ~1000-fold dilution): 10 mM), the “IRF Lucia reporter activity” value in experiment [1] (setting [4]) was found to be 1.29; in experiment [1] (agonist: LPS (TLR4) 0.1 ug/mL), 2.12.
As to `CC(C)n1nc(-c2cc3cc(O)ccc3[nH]2)c2c(N)ncnc21`, in experiment [2] (setting [5]), the “IRF Lucia reporter activity” value is 1.11.
`CC(C)n1nc(-c2cc3cc(O)ccc3[nH]2)c2c(N)ncnc21` (library stock concentration (final ~1000-fold dilution): 10 mM): the “IRF Lucia reporter activity” value in experiment [1] (setting [4]) stood at 1.02; in experiment [1] (agonist: LPS (TLR4) 0.1 ug/mL) it was 0.287.
Regarding `NC(=O)N1c2ccccc2C=Cc2ccccc21` (library stock concentration (final ~1000-fold dilution): 10 mM), the “IRF Lucia reporter activity” value was 1.03 in experiment [1] (setting [4]) and 0.899 in experiment [1] (agonist: LPS (TLR4) 0.1 ug/mL).
Consider `NC(=O)N1c2ccccc2C=Cc2ccccc21`, for which the “IRF Lucia reporter activity” value in experiment [2] (setting [5]) stood at 0.913.
With `C=CC(=O)N1CCN(C(=O)CNc2cc(I)c(Cl)cc2O)CC1` (library stock concentration (final ~1000-fold dilution): 10 mM), the “IRF Lucia reporter activity” value amounted to 0.048 in experiment [1] (setting [4]) and 0.251 in experiment [1] (agonist: LPS (TLR4) 0.1 ug/mL).
For `C=CC(=O)N1CCN(C(=O)CNc2cc(I)c(Cl)cc2O)CC1`, the “IRF Lucia reporter activity” value in experiment [2] (setting [5]) was determined as 0.184.
For the molecule `Cc1ccccc1CN1C(=O)C2=C(CCN(Cc3ccccc3)C2)N2CCN=C12` (library stock concentration (final ~1000-fold dilution): 10 mM), the “IRF Lucia reporter activity” value is 0.992 in experiment [1] (setting [4]) and 0.961 in experiment [1] (agonist: LPS (TLR4) 0.1 ug/mL).
For `CC(=O)OCC1=C(C(=O)O)N2C(=O)C(NC(=O)Cc3cccs3)C2SC1` (stereo not drawn), the “IRF Lucia reporter activity” value in experiment [2] (setting [5]) amounted to 1.1.
In the case of `CC(=O)OCC1=C(C(=O)O)N2C(=O)C(NC(=O)Cc3cccs3)C2SC1` (stereo not drawn) (library stock concentration (final ~1000-fold dilution): 10 mM), the “IRF Lucia reporter activity” value stood at 1.08 in experiment [1] (setting [4]) and 1.29 in experiment [1] (agonist: LPS (TLR4) 0.1 ug/mL).
For `CC(=O)C1CCC2C3CC=C4CC(O)CCC4(C)C3CCC12C` (stereo not drawn) (library stock concentration (final ~1000-fold dilution): 10 mM) the same measures were 0.976 and 1.1.
As to `CC(=O)C1CCC2C3CC=C4CC(O)CCC4(C)C3CCC12C` (stereo not drawn), in experiment [2] (setting [5]), the “IRF Lucia reporter activity” value came to 1.29.
